In this data set the test system is ATP. The experiment in a line: switch fluorescence ratio, 500 uM ATP over buffer (Cy3 cluster intensity, sum of 5 cycles each) (fold (ratio)); higher = stronger signal-on switching upon ATP binding; sequences stand for … in TCGTCGGCAGCGTCAGATGTGTATAAGAGACAGTTTTTTTTTTTTTTTTTTTTTTTTT…TC. The conditions noted are these: aptamer strand: ATP DNA aptamer (quencher-CACCTGGGGGAGTATTGCGGAGGAAGG + anchor), 100 nM annealed; ATP concentration: 500 uM; one replicate. A digest of the protocol: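 Exposure to 500 uM ATP lasted 15 min at 22 °C before imaging, and a selection-buffer image was taken beforehand, for Cy3-labelled switching-strand clusters on a modified Illumina MiSeq flow-cell annealed to 100 nM quencher-labelled ATP aptamer. Five buffer/ATP cycles were run with NaOH stripping and re-annealing between them. The fluorescence ratio per cluster is summed target-cycle over summed buffer-cycle Cy3 intensity, averaged per switch-domain sequence. Clusters outside 100-1000 RFU were excluded.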

Values marked as one replicate rest on one cluster of the flow cell; about a third of the high ones do not repeat.

Regarding TTTTGACGGT, the switch fluorescence ratio is 1.01.
ACAATACAGG: the switch fluorescence ratio amounted to 1.21.
As for TATTAATCA, the switch fluorescence ratio worked out at 0.978.
Take GTCTCAAAAT: the switch fluorescence ratio was 1.03.
For the sequence ACGCTCAAGG, the switch fluorescence ratio amounted to 1.09.
Regarding TGTAAAGAGA, the switch fluorescence ratio was 0.978.
With CCACAAGACC the figure was 2.75; with GGGGGCCCCT, 1.04.
For AATGCGAGGT, the switch fluorescence ratio is 1.01.
With TAAATGTTTT the figure was 1.14.
With ATGAAGTTGG the figure was 0.995; with TAACGCCTGC, 1.07; with GAAAACGAGC, 0.979.
In the case of TCGGGAGTCG, the switch fluorescence ratio worked out at 1.03.
For the sequence CGTGTTATAA, the switch fluorescence ratio is 0.957.
In the case of AAGCGTGACC, the switch fluorescence ratio is 0.984.
As for AGCACCCAGC, the switch fluorescence ratio is 1.
CAGGTGTAGT: the switch fluorescence ratio turned out to be 1.23.
Regarding ACGGCGCCTT, the switch fluorescence ratio was 0.994.
CGTCTTGTG: the switch fluorescence ratio is 1.
For the sequence CCACAGCATG, the switch fluorescence ratio turned out to be 2.16.
Take GGTGACAGCC: the switch fluorescence ratio was found to be 0.982.
For the sequence TTGAGCGACG, the switch fluorescence ratio came to 1.06.
As to TGAGGTTGTT, the switch fluorescence ratio is 1.01.
With GATTGTTGTG the figure was 1.02; with TGTGTGCCTG, 1.02; with GCAGATTCCG, 1.01.
Regarding GGCGGAAACG, the switch fluorescence ratio was 0.997.
Turning to GCTCGCGGGG, the switch fluorescence ratio is 1.02.
In the case of AGCCCTTACG, the switch fluorescence ratio is 1.06.
Regarding GCCGAGGTA, the switch fluorescence ratio came to 0.966.
Regarding ACGCCAACCG, the switch fluorescence ratio worked out at 1.12.
With GTAAGGCTGT, the switch fluorescence ratio amounted to 0.98.
With GGTTGATCGA, the switch fluorescence ratio was found to be 1.02.
Consider GTGCATGTTC, for which the switch fluorescence ratio is 1.04.
With CGGCTATATT, the switch fluorescence ratio was 1.02.
With TTTATGACGC the figure was 1.01; with AAAGCCTCGT, 1.
For GGAGTAAAAT, the switch fluorescence ratio amounted to 1.03.
For ACTGTATCTC, the switch fluorescence ratio amounted to 1.13.
TTAGGTACCA: the switch fluorescence ratio turned out to be 0.999.
With GGAGCTAGTT the figure was 1.07; with GTTATATGGC, 0.971.
Regarding GTTGGGGCT, the switch fluorescence ratio was determined as 0.982.
Turning to AAATTGTTGC, the switch fluorescence ratio was found to be 1.03.
As for AAGTCGGAGA, the switch fluorescence ratio came to 1.41.
Regarding CAGATTAACG, the switch fluorescence ratio worked out at 1.04.
For the sequence GGCCGACGCG, the switch fluorescence ratio worked out at 1.06.
With GATTTGAGG the figure was 1.05; with TGCGCGCGTA, 0.977.
GCCACGATAA: the switch fluorescence ratio turned out to be 1.13.
With AATAAAGTCC the figure was 0.99; with GGATTGTTGC, 1.01.
In the case of GGCGGCATAC, the switch fluorescence ratio stood at 2.99.
For TAAGTGCTCC, the switch fluorescence ratio turned out to be 1.01.
For GTATCTTAAT, the switch fluorescence ratio was 0.948.
Regarding ACAGGACCAG, the switch fluorescence ratio was determined as 1.09.
GGTTAATTTA: the switch fluorescence ratio was 1.01.
On to AAGCCTATCA, for which the switch fluorescence ratio came out at 1.03.
On to GGGTAACTTC, for which the switch fluorescence ratio was determined as 0.987.
With GGCTACAGAC the figure was 1.05; with GACAGGTAG, 1.05.
Turning to GCCTGGTGGT, the switch fluorescence ratio was determined as 1.06.
As for GACTCACATC, the switch fluorescence ratio stood at 1.28.
Consider AAATGGCAGT, for which the switch fluorescence ratio came to 0.994.
In the case of CATCGGCCAA, the switch fluorescence ratio amounted to 2.97.
With TAGGGCTATA the figure was 1.05.
With TTCACGGTAA, the switch fluorescence ratio was 1.21.
CGGCTTCCGG: the switch fluorescence ratio amounted to 1.02.
Turning to TAAGCTTGTC, the switch fluorescence ratio stood at 1.14.
With ACTACCACTC, the switch fluorescence ratio is 1.31.
Turning to TCGAGATTGG, the switch fluorescence ratio came to 1.01.
As for TGCGGGTCAG, the switch fluorescence ratio turned out to be 1.01.
Take ACAGGAGCAG: the switch fluorescence ratio was 1.02.
CGCGTTTAGG: the switch fluorescence ratio was found to be 1.14.
Consider TGAGGCGAGT, for which the switch fluorescence ratio came to 1.01.
Turning to GCATTTTACT, the switch fluorescence ratio amounted to 1.08.
Consider TAAGTTGAAA, for which the switch fluorescence ratio was found to be 1.03.
As to TCGCAGACAC, the switch fluorescence ratio is 1.89.
As to GGTGTCTTGC, the switch fluorescence ratio was determined as 0.978.
Turning to TTCTATACCA, the switch fluorescence ratio worked out at 0.957.
Take TTCCTAAATA: the switch fluorescence ratio amounted to 0.968.
GGGCTGGTGG: the switch fluorescence ratio was determined as 1.05.
TAAACGCTGA: the switch fluorescence ratio was 1.07.
With CTGATTGACA the figure was 1.05.
With TATCTTTCCG the figure was 1; with ATGATAAAAA, 0.998; with GCGGTCGCCC, 1.03.
Turning to TGATATTGAC, the switch fluorescence ratio stood at 1.07.
Take GAGCGAAACG: the switch fluorescence ratio amounted to 1.03.
For TAAGGAATAA, the switch fluorescence ratio came to 0.976.
With CTTGGTGCGC the figure was 1.06.
As for GCACGGCTCT, the switch fluorescence ratio stood at 0.985.
With GCTCCTTGAT the figure was 1.04.
ATAAAGGGAG: the switch fluorescence ratio came out at 0.991.
As for CCAATCGCAG, the switch fluorescence ratio amounted to 3.43.
With TTTGGTCGAT the figure was 1.04; with CACGGGCTAG, 1.01; with TCCTTAGGGA, 0.987.
With CCGGGACGTG the figure was 0.978; with AGAGACAGGT, 1.02; with TCACCTCGAT, 1.04.
Take CAGCTAGGGA: the switch fluorescence ratio was found to be 0.961.
Consider GGGTATCATA, for which the switch fluorescence ratio was 0.96.
Regarding CGCGGTAAAG, the switch fluorescence ratio was found to be 1.
As to AATTTATACA, the switch fluorescence ratio turned out to be 1.03.
Turning to GCAGGAACGC, the switch fluorescence ratio came to 0.885.
With AGAGAAAACC, the switch fluorescence ratio was 1.07.
As to ATTGTAATTC, the switch fluorescence ratio was determined as 1.23.
In the case of ACGGGAGGGT, the switch fluorescence ratio turned out to be 1.04.
On to CTCAGACATG, for which the switch fluorescence ratio was 0.981.
With GATGATGGTC the figure was 1.02; with CAGCTAACCT, 1.8.
On to ATGCATCGCA, for which the switch fluorescence ratio stood at 1.01.
Turning to GTGCAATGGA, the switch fluorescence ratio turned out to be 1.08.
Turning to AAGTTGGTAT, the switch fluorescence ratio worked out at 0.965.
With AAATTGGCCG the figure was 1; with ATTGATTTTA, 1; with GCATTGATGA, 1.02.
With TTGTCGCCTT, the switch fluorescence ratio was determined as 1.01.

The record behind these values is the supplement of paper PMC10126150.
